# In the BET-seq Pho4 binding data (Le et al. 2018):
# This is one part of the list. These are noisy estimates, calculated here from bound and input reads.
# Molecular target: T1, Pho4 (S. cerevisiae) (UniProt P07270)
# T1 sequence: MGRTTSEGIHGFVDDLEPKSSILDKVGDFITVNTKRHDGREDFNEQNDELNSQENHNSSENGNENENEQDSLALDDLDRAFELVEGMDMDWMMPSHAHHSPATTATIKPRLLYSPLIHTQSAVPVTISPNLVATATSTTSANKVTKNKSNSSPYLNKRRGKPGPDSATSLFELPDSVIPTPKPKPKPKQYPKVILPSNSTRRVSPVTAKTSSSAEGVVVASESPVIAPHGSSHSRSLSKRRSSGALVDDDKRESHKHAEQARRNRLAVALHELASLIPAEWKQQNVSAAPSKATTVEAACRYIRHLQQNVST
# Assay: relative binding free energy (BET-seq); higher = weaker binding
# Details: reference: library average
row,Sequence,relative binding free energy [kcal/mol]
1,TTTAGCACGTGAGGTA,0.11
2,TGGAACACGTGAAGTG,0.2
3,TGGGTCACGTGCTAGG,0.01
4,AGGGTCACGTGGATCG,0.25
5,TTCTACACGTGGGGCA,0.11
6,GTTAGCACGTGTATAG,-0.04
7,TGCAGCACGTGGGCGG,-0.28
8,AGAAGCACGTGCGAGG,-0.09
9,CAGTCCACGTGGGTTG,-0.04
10,TGTTACACGTGTGCTT,-0.01
11,TCTTGCACGTGATGAG,0.24
12,GTGGTCACGTGGAGAC,0.23
13,TGGGTCACGTGTTGCT,0.17
14,ATTTGCACGTGGTTTG,-0.03
15,GAGCGCACGTGCTGGG,-0.05
16,CAGGGCACGTGTAGGC,-0.04
17,AATGGCACGTGCGGGG,-0.03
18,TTGCTCACGTGAAGTT,0.42
19,ATAGTCACGTGAGTCT,0.28
20,TATTACACGTGCTGTT,-0.05
21,TAGTACACGTGTCAGT,0.04
22,AAGATCACGTGTGGGC,0.21
23,AGACTCACGTGAGGGT,0.36
24,TTGTGCACGTGTTTTT,0.09
25,GGTTGCACGTGATTGG,0.24
26,TGGAGCACGTGAGCTT,0.12

row,Sequence,relative binding free energy [kcal/mol]
1,TGTTACACGTGTGAGG,0.28
2,AGGTTCACGTGCTATG,0.27
3,TTGGTCACGTGAGATC,0.34
4,ATTGGCACGTGCCAGG,-0.22
5,CACTGCACGTGTGGTG,0.06
6,TGATGCACGTGTTCGG,0.02
7,ATCAGCACGTGTTGGT,-0.07
8,GGCGTCACGTGGTGAG,0.05
9,TCTTACACGTGGTATG,0.04
10,AGGATCACGTGTATGA,0.24
11,AAGGGCACGTGGAAAT,0.01
12,GGGTTCACGTGCATGG,0.25
13,GTGTGCACGTGATAGC,0.1
14,GTGTACACGTGGGAAG,0.1
15,TAGGCCACGTGGAATA,0.22
16,GTTGTCACGTGGGACA,0.04
17,TGGGTCACGTGAGGTT,0.37
18,ATACGCACGTGTGGAG,-0.11
19,TTGAACACGTGGCCGG,0.04
20,AGGCACACGTGTGTAT,0.14
21,ACTGTCACGTGCGGGG,0.06
22,TTTTACACGTGGGGAC,0.04
23,GCGTGCACGTGGCGTT,-0.14
24,CGGAGCACGTGCGGTG,-0.12
25,TTTATCACGTGATAAA,0.22
26,GATTGCACGTGGTGTC,0.14

row,Sequence,relative binding free energy [kcal/mol]
1,GTAAGCACGTGCGTTG,-0.08
2,TTGCGCACGTGGTGCT,-0.23
3,GGGGTCACGTGGGCCG,0.1
4,GAGGGCACGTGTGTGT,-0.04
5,TGCTACACGTGTTGTA,0.01
6,GTGAGCACGTGAAGCG,0.33
7,TGGAACACGTGGTGTG,-0.05
8,TTATGCACGTGGCTCT,-0.14
9,GGTCGCACGTGTGTTC,0.11
10,GTGTTCACGTGGATAG,0.19
11,TGTAGCACGTGAGAGA,0.24
12,ATATTCACGTGTTGTA,0.2
13,ATCTACACGTGTGGGA,0.21
14,TGTTACACGTGCTTGC,0.19
15,GAGTTCACGTGTTAGA,0.31
16,CGAGTCACGTGCGGGT,0.12
17,TCGCGCACGTGGGGGA,-0.23
18,ACGTTCACGTGGGGAT,0.27
19,CGGGGCACGTGGTCGC,-0.15
20,CAAGTCACGTGGGCTG,0.05
21,ATTGGCACGTGTTTAC,-0.22
22,GTGTCCACGTGGTAGG,0.07
23,CGGTCCACGTGAGTGG,0.14
24,ATTATCACGTGGTCTG,-0.05
25,CAGTGCACGTGTGGTT,0.09
26,GGTGACACGTGTGATG,0.18

row,Sequence,relative binding free energy [kcal/mol]
1,AGTGGCACGTGATAGG,0.1
2,GCGCGCACGTGGGGAG,-0.19
3,GTCTGCACGTGTAATT,0.14
4,ATATGCACGTGGATGG,-0.11
5,ATGGTCACGTGTCGAG,0.05
6,TGCTGCACGTGGGGAC,-0.12
7,TTTTACACGTGTCAGA,0.17
8,GAGGTCACGTGCGTGT,0.17
9,TTTGTCACGTGTCCTT,-0.06
10,GTAGTCACGTGAGGTG,0.3
11,GTTTTCACGTGTGGAA,0.33
12,TGCTGCACGTGTTTTT,-0.04
13,TTGTACACGTGGAGGA,-0.1
14,CTGTCCACGTGTGTGG,0.02
15,AGTAGCACGTGGATTG,-0.14
16,TCGTTCACGTGTTGTA,0.41
17,TCTGTCACGTGGGTTA,-0.09
18,ATAACCACGTGTGGGT,-0.01
19,GTAAGCACGTGTGTAA,0
20,CTTGTCACGTGACGGT,-0.01
21,GGGGCCACGTGGGGGG,-0.12
22,TGGTTCACGTGTTTCT,0.24
23,GTCGGCACGTGGTTCT,0.03
24,AATAGCACGTGGTTAT,-0.14
25,AACAGCACGTGGGGAG,-0.07
26,TTGCGCACGTGTGGGT,-0.11

row,Sequence,relative binding free energy [kcal/mol]
1,TTTAGCACGTGTTTAC,-0.13
2,GATGTCACGTGTTTTT,0.24
3,GCGAGCACGTGATTGG,0.17
4,GCTTTCACGTGGTTAG,0.44
5,TTGCACACGTGTTTTA,0.17
6,GGTGGCACGTGTTTCA,-0.07
7,TAAGGCACGTGATTGT,-0.02
8,TGGAGCACGTGTGAGT,0
9,CGTGACACGTGAGGTT,0.15
10,ACGGCCACGTGTTGGG,0.01
11,CGTAACACGTGGTTTG,-0.17
12,AGCTTCACGTGTGGCT,0.18
13,AGGGGCACGTGGGACA,-0.29
14,AAGCGCACGTGTTGGT,-0.15
15,TGTTGCACGTGCTTGG,0.02
16,ATTAGCACGTGTATAG,-0.12
17,GTGGTCACGTGGATAT,0.21
18,GGGTTCACGTGGTTGC,0.37
19,GGATTCACGTGTAATG,0.43
20,TAATTCACGTGGTTGC,0.29
21,TTATCCACGTGTGGGA,-0.12
22,GAATTCACGTGGTACG,0.37
23,GGCAGCACGTGTATGG,0
24,TTAGGCACGTGTGTTC,-0.13
25,ATTTTCACGTGGAGAG,0.27
26,TTAGACACGTGAGGTC,0.18

row,Sequence,relative binding free energy [kcal/mol]
1,CTTAGCACGTGATGAT,0.11
2,ATTTACACGTGTTTGC,0.11
3,AGCAGCACGTGGTGTT,-0.3
4,GGAGTCACGTGAGGTT,0.29
5,GGTAGCACGTGAGGCG,0.24
6,AGTAGCACGTGTGTTG,-0.15
7,AGAATCACGTGTGGGC,0.28
8,GGGGTCACGTGTGCGT,0.02
9,AGAAGCACGTGTAGGT,-0.13
10,TGTGCCACGTGGGACG,-0.26
11,TATGGCACGTGATTTT,0.03
12,GTGGCCACGTGTGAAT,0.23
13,TATGACACGTGGTTCA,-0.05
14,GGGCCCACGTGGAGTG,-0.14
15,AGGGACACGTGCGTTT,-0.17
16,TTGCGCACGTGTGCGG,-0.21
17,TTTGCCACGTGAGGAG,0.27
18,GGTGTCACGTGTAGAT,0.33
19,AGGTGCACGTGTTCGA,-0.05
20,AAGTGCACGTGGTCAG,-0.19
21,GGCGGCACGTGTGTAG,-0.02
22,GGGTCCACGTGGAGCG,0.08
23,TGGTTCACGTGGTTTA,0.23
24,GTTCACACGTGATAGT,0.39
25,GGACGCACGTGGTTGT,-0.05
26,TGTGGCACGTGCCTGA,-0.15

row,Sequence,relative binding free energy [kcal/mol]
1,ATGGACACGTGATGCT,0.08
2,GGGGGCACGTGCGCAG,-0.16
3,ATTTACACGTGACTTT,0.16
4,GTCTGCACGTGAAGGG,0.27
5,GGAGACACGTGAGGTT,0.08
6,AAGGTCACGTGGTACT,0.03
7,CCGTTCACGTGTGGTT,0.32
8,GATATCACGTGTTTGC,0.21
9,AGTGGCACGTGATTAT,0.11
10,TGAGGCACGTGCGGTA,-0.15
11,GTAAACACGTGTTATG,0.07
12,TTAATCACGTGAGGGG,0.38
13,GGGCTCACGTGGGCCG,0.1
14,TGGTGCACGTGCATAG,-0.11
15,ACGGTCACGTGGTTTA,-0.04
16,TCAGTCACGTGTAGAG,0.1
17,TTTGTCACGTGCCGGG,0.09
18,TGCGTCACGTGTGTGA,0.08
19,GATGTCACGTGCGTGT,0.01
20,TGTGGCACGTGCTTGT,-0.17
21,GTGTGCACGTGGTTTC,-0.01
22,TTTAGCACGTGTCTGA,-0.08
23,ATTGGCACGTGATCAG,-0.05
24,TAGGGCACGTGTGGCC,0.04
25,CGTGCCACGTGGGGGT,-0.31
26,TGCAGCACGTGGTTCG,-0.06

row,Sequence,relative binding free energy [kcal/mol]
1,TGGCGCACGTGGTATA,-0.04
2,TGAGACACGTGGTTAT,-0.11
3,AAGATCACGTGTGTGG,0.21
4,AGGAGCACGTGGTTTG,-0.04
5,CTAGTCACGTGGATGG,-0.11
6,TTATGCACGTGGTGAT,-0.09
7,GCATGCACGTGTAGGG,-0.06
8,GGTTGCACGTGTGGCG,0.07
9,TTCGTCACGTGGTTCT,0.11
10,TTATTCACGTGAGTTG,0.49
11,AGGCGCACGTGGGGAT,-0.32
12,ATGTTCACGTGTTCTA,0.15
13,AGCATCACGTGATGGG,0.2
14,GAGGGCACGTGCGTAG,-0.28
15,TGACGCACGTGTTGGA,-0.12
16,GCGTGCACGTGAGGCA,0.4
17,TGTTTCACGTGGAAGT,0.35
18,TTAGGCACGTGGGCCG,-0.1
19,AGGGTCACGTGTTTGA,0.16
20,GTGATCACGTGGCAGG,-0.01
21,GGGCGCACGTGATCGG,0.1
22,TGCGGCACGTGTGAGT,0.01
23,ATTGGCACGTGTGGTC,-0.09
24,TGGGGCACGTGCAGCA,-0.21
25,AATATCACGTGTATTT,0.02
26,ATGATCACGTGGGTCA,0

row,Sequence,relative binding free energy [kcal/mol]
1,TAGGTCACGTGTCTAA,0.18
2,GGGTACACGTGGGGTG,-0.03
3,TTTATCACGTGAGGGA,0.46
4,TTGGGCACGTGTCGGA,0.09
5,GAGAGCACGTGGTGTC,0.1
6,TGTAACACGTGCGAGG,-0.05
7,GGGTGCACGTGTAACG,0.1
8,TAACGCACGTGTTTTT,0.02
9,TGGGGCACGTGTGAGC,-0.03
10,AAGTTCACGTGTAAGG,0.28
11,GTTGCCACGTGGCGGA,-0.14
12,AGTTTCACGTGGTCAA,0.18
13,GGTAACACGTGGCGGT,0
14,AAATGCACGTGTTATT,-0.13
15,TGGTGCACGTGATACG,0.11
16,TGGGTCACGTGTGAAT,0.27
17,CGTTCCACGTGGGTAG,0.04
18,GGTGCCACGTGACGTG,0.07
19,TTGTTCACGTGGTATC,0.36
20,CTTCGCACGTGGTGTT,-0.28
21,TGGTTCACGTGTAGCG,0.25
22,AAGAGCACGTGCGGTG,-0.16
